Hit rate of the full screen: of about 140,000 compounds, about 240 (0.17%) were called active. This list was built around the results that the source calls inconclusive (neither active nor inactive); the mix of calls is not that of the screen. The call rests on the fitted dose curve; in most records, active means well fitted inhibition curve with a large enough effect; inconclusive means small, poorly fitted or top-dose-only effect; inactive means no such curve, though single readings can be large or run the other way. Potencies beside an inconclusive call are fits to weak or partial responses and may not hold up.
Assay: Primary qHTS assay for inhibitors of alpha-synuclein gene (SNCA) expression; further: nearly all actives have a fitted effect of over 45% in size;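 on activity change, negative = inhibition: plate controls were DMSO cells for no effect and cell-free wells for full effect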
Settings: HEK-293 SNCA-luciferase knock-in, luminescence, 24 h; activity change, negative = inhibition: at 57.2 µM (top of the series) unless noted
Potency means the concentration at half of the fitted maximal effect; tags describe the fitted curve by direction and shape.

Activity change, negative = inhibition, inactive:
N#Cc1cccc(-c2c(C(=O)NC3CCCCCC3)nc3sccn23)c1 34.8%
O=C(c1cc(C2CC2)[nH]n1)N1CC(F)(F)C[C@H]1c1nc(C2CC2)no1 -14.3%
CN(C)c1ccc(CN2C[C@@H](CN3CCCCC3)[C@@H](CO)C2)cn1 14.9%
Cc1cc2cc(-c3c(C)noc3C)nc(-c3ccc(CO)cc3)c2o1 63% [at 87.6 µM]
O=[S+]1([O-])NC2(CCN(Cc3ccncc3)CC2)CNc2ccccc21 26.8%
Cc1cc(C(=O)NCC(C)C)c2c(C3CCCNC3)noc2n1 (stereo not drawn) 3.02%
COc1ccc(Nc2ccnc(N3CCCC(C(=O)NCCCc4ccccc4)C3)n2)cc1 (stereo not drawn) -1.36%
COC(=O)[C@@H]1C[C@@H](NS(=O)(=O)c2ccc(C(F)(F)F)cc2)CN1C -5.1%
CCc1ccccc1NC(=O)CN1C(=O)NC2(CCOCC2)C1=O 2.83%
CCc1ccc(-n2c(N3CCN(c4cccc(C)c4C)CC3)nc3ccccc3c2=O)cc1 0.29%
COCCOc1cc(-c2noc([C@@H]3CCCN3C3CCN(C(C)=O)CC3)n2)ccn1 12.1% [at 87.6 µM]
O=C(c1cc(-c2cccnc2)c2nncn2n1)N1CCOCC1 6.21%
CC(C)n1cc(-c2cc(C(=O)N(C)Cc3cccnc3)c3cc(F)ccc3n2)cn1 3.31%
COc1cccc(-c2nc(SCc3ccc(C)cc3)n3[nH]c(=O)cc3n2)c1 32.2%
COc1ccccc1CN1C[C@@H]2C(=O)N(Cc3ccc4c(c3)OCO4)C(=O)[C@@H]2C1 -7.98%
FC(F)(F)c1cccc(C2=NOC3(CCCN(Cc4cccc5ccccc45)C3)C2)c1 (stereo not drawn) -7.41%
CCOC(=O)N[C@H]1[C@H](OC(=O)Nc2ccccc2)[C@@H]2O[C@H]1c1ccccc12 3.76% [at 25.6 µM]

Potency, inconclusive:
O=C(CCCc1c[nH]c2ccccc12)N1CCc2nc3cc(-c4ccccc4)[nH]n3c(=O)c2C1 1.58 µM [inhibitor, partial curve, poor fit]
O=C(COc1ccccc1F)Nc1ccc(Cl)c(-c2nc3ccccc3[nH]2)c1 0.178 µM [inhibitor, single point]
O=C(NCCOc1cccc2cccnc12)C1CCCN(C2CCCC2)C1 (stereo not drawn) 39.8 µM [inhibitor, single point]
CCc1ccc(N2CCn3c2nc2c3c(=O)n(CCc3ccccc3)c(=O)n2C)cc1 7.08 µM [inhibitor, single point]
Cc1ccc(N(CC(=O)N2CCN(c3cc(Cl)ccc3C)CC2)S(=O)(=O)c2c(C)noc2C)cc1 20 µM [inhibitor, single point]
CN(Cc1cccc2ccccc12)C1CCOc2ccccc21 (stereo not drawn) 12.6 µM [inhibitor, single point]
O=C(C1CCc2ncc(-c3ccsc3)n2C1)N1CCN(c2ccccn2)CC1 (stereo not drawn) 39.8 µM [inhibitor, single point]
C=CCNC(=O)C(NC(=O)c1cccc(OC)c1)C1CCN(C(=O)C2CCCC2)CC1 (stereo not drawn) 3.16 µM [inhibitor, single point]
CC(C)NC(=O)N1CC[C@@]2(CCCN(C(=O)c3cccc(F)c3)C2)C1 12.6 µM [inhibitor, partial curve, poor fit]
O=C1c2c(nc(CNCc3ccccc3)n2Cc2ccccc2)NCCN1CC1CC1 56.2 µM [inhibitor, single point]
CCOCC(=O)N1CCCC(c2[nH]ccc2C(=O)NC)C1 (stereo not drawn) 35.5 µM [inhibitor, single point]
COCC1CCN(C(=O)C2CCCN(C(=O)c3ccccc3)CCC(=O)NCC2)CC1 (stereo not drawn) 0.794 µM [inhibitor, full curve, poor fit]
Cc1ccc(Nc2nc(N)nc(N)c2S(=O)(=O)c2ccccc2)cc1 39.8 µM [inhibitor, single point]
CCCCN1CCN(C(=O)c2csc(N3CCN(c4cccc(Cl)c4)CC3)n2)CC1 0.708 µM [inhibitor, full curve, poor fit]
COCc1nc(C2CCCN(C(=O)c3cccc(F)c3)C2)no1 (stereo not drawn) 39.8 µM [inhibitor, single point]
CC(C)NC(=O)[C@@H]1CCCN1c1nccc(Nc2ccccc2Cl)n1 10 µM [inhibitor, partial curve]
COC[C@@H]1CN(Cc2cn(C)nc2C)C[C@H]1C(=O)NC1CC1 11.2 µM [inhibitor, partial curve, poor fit]
Cc1nc(-c2ccc(F)cc2)n(CC(=O)Nc2cccc(Cl)c2)c(=O)c1CCO 1.78 µM [inhibitor, full curve, poor fit]
Cc1nn2c(c1-c1ccccc1Oc1ccccc1)N(Cc1ccc(C(=O)O)cc1)CCC2 10 µM [inhibitor, full curve, poor fit]
O=C(NCCc1cccs1)c1cccc2c1CCN2C(=O)Nc1ccccc1 39.8 µM [inhibitor, single point]
COc1ccc(C(=O)N2CC3CC(C2)[C@H]2CCCC(=O)N2C3)cc1F (stereo partly drawn) 3.55 µM [inhibitor, single point]
CCC(C(=O)NCc1cccc(Br)c1)n1nc(C)c2c(C)n(-c3ccccc3)nc2c1=O (stereo not drawn) 31.6 µM [inhibitor, single point]
Cc1ccc(OCCC2CCN(C(=O)CCCC(=O)n3nc(C)c4ccccc43)C2)cc1 (stereo not drawn) 12.6 µM [inhibitor, partial curve, poor fit]
CC(=O)C1=C(c2ccc(Cl)c(Cl)c2)N(C(C)=O)n2cnnc2S1 39.8 µM [inhibitor, single point]
O=C1CN(C(=O)COc2ccc(Cl)cc2)C(c2ccc(F)cc2)c2cc(Br)ccc2N1 (stereo not drawn) 22.4 µM [inhibitor, single point]
O=C(c1ccccc1)N1CCC2(C1)C(=O)N(Cc1ccccc1)c1ccccc12 (stereo not drawn) 20 µM [inhibitor, single point]
CCS(=O)(=O)c1oc(-c2ccc(F)cc2)nc1S(=O)(=O)c1ccc(Br)cc1 20 µM [inhibitor, partial curve, poor fit]
CCn1cc(C(=O)NCc2ccccc2OC)c(=O)c2cc(S(=O)(=O)N3CCCCCC3)ccc21 28.2 µM [inhibitor, single point]
CC(=O)N1CC2(CCCN(C(=O)CCC(=O)O)C2)Cc2ccccc21 (stereo not drawn) 1 µM [inhibitor, full curve, poor fit]
CCS(=O)(=O)c1cccc(-c2cc(C(=O)NC3CCN(C)CC3)c(C)c3[nH]c4ncc(C)cc4c23)c1 5.41 µM [inhibitor, full curve, poor fit]
Cc1cc(C)n(-c2nc(C)c(C)c(=O)n2CC(=O)Nc2ccc(Cl)c(Cl)c2)n1 25.1 µM [inhibitor, single point]
CC(=O)Nc1ccc(NC(=O)c2c(C)nn(-c3ccccc3)c2-n2cccc2)cc1 35.5 µM [inhibitor, single point]
NC(=O)c1cccc(-c2cc3c(cn2)CN(CCc2ccccc2)CCN3)c1 56.2 µM [inhibitor, single point]
COc1ccc(NC(=O)N2CCCC(Cn3cnc4cccnc43)C2)cc1 (stereo not drawn) 8.91 µM [inhibitor, single point]
Cc1ccn2c(C(=O)N[C@H]3CCOC[C@H]3C3CCOCC3)nnc2n1 35.5 µM [inhibitor, single point]
Cc1nnc(NC(=O)NCCn2nc(-c3ccccc3)ccc2=O)s1 8.91 µM [inhibitor, single point]
O=[S+]([O-])(NC1CCN(Cc2ccc(-c3ccsc3)cc2)C1)c1cccs1 (stereo not drawn) 14.1 µM [inhibitor, partial curve, poor fit]
COc1ccc(Cl)cc1N(C)C(=O)Cc1noc2ccc(C)cc12 12.6 µM [inhibitor, single point]
Cc1nc(CN2C(=O)OC3(CCN(C(=O)c4ccc(Oc5ccccc5)cc4)CC3)C2(C)c2ccccc2)cs1 (stereo not drawn) 20 µM [inhibitor, single point]
O=C(NCCc1ccccc1)C1CCCN1Cc1ccc(-c2cncnc2)cc1 (stereo not drawn) 11.2 µM [inhibitor, partial curve, poor fit]
COc1ccccc1C(=O)N1CCN(C(=O)c2nnn3c2COC(c2ccc(Cl)cc2)C3)CC1 (stereo not drawn) 11.2 µM [inhibitor, single point]
CC(=O)[C@]1(O)Cc2c(O)c3c(c(O)c2[C@@H](O[C@H]2C[C@H](N)[C@@H](O)[C@H](C)O2)C1)C(=O)c1ccccc1C3=O 3.04 µM [inhibitor, full curve]
Cc1cc(C(=O)C(=O)Nc2nnc(C(C)C)s2)c(C)n1-c1ccccc1 11.2 µM [inhibitor, partial curve, poor fit]
C[S+](=O)([O-])N1Cc2ccccc2OC2(CCN(C(=O)c3ccc4[nH]ccc4c3)CC2)C1 11.2 µM [inhibitor, partial curve, poor fit]
O=C(NCc1ccccc1)c1nc2sccn2c1-c1cccnc1 3.16 µM [inhibitor, full curve, poor fit]

Potency, active:
NC(=O)C1CCCc2c1[nH]c1ccc(Cl)cc21 (stereo not drawn) 8.57 µM

Reference: PubChem BioAssay AID1671194 (National Center for Advancing Translational Sciences (NCATS), 2021)
